Test results published in the supplement of paper PMC4723716.
In all, about 3,600 compounds were measured (“viability index relative to DMSO control”: median about 0.81, lowest 2% from about 0.13 on). Some of the results follow.

The molecules below were run on Plasmodium falciparum NF54 stage V gametocytes (assay: viability index relative to DMSO control (fraction); higher = less gametocyte killing). Settings: 1.25 µM, incubation time: 72 h.
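Further: 384-well serum-free SaLSSA: MitoTracker Red CMXRos staining with saponin lysis, high-content imaging, treated-well particle count divided by plate-mean count of DMSO wells.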

Row | Structure (SMILES) | viability index
1 | O=[N+]([O-])c1ccc(-n2cccc2C=NNc2ncnc3sc4c(c23)CCCC4)cc1 | 1.09
2 | Ic1ccc(NCc2cn3ccccc3n2)cc1 | 0.918
3 | C=CCn1c(SCC(=O)Nc2ccccc2C)nc2sc(C)cc2c1=O | 1.02
4 | O=[N+]([O-])c1cc(C(F)(F)F)ccc1N1CCCN(C(=S)Nc2cccc(C(F)(F)F)c2)CC1 | 0.336
5 | CCOC(=O)c1ccc(OCC2c3cc(OC)c(OC)cc3CCN2C(=O)Nc2ccc(Cl)cc2)cc1 (configuration not stated) | 1.07
6 | CCCN1CCC(N2C[C@@H](NCc3ccc(OCc4ccccc4)cc3)C[C@H]2C(=O)NCCc2ccc3c(c2)OCO3)CC1 | 1.07
7 | Cc1cc(Nc2ccc(Br)c(C)c2)n2nc(C)nc2n1 | 1.08
8 | CC(=O)N(C1=C(N2CCN(C)CC2)C(=O)c2ccccc2C1=O)c1cc(C)cc(C)c1 | 0.521
9 | CCc1cccc2c(C#N)cn(CC(=O)Nc3ccc(OC)cc3)c12 | 0.457
10 | Cc1ccc(NC(=O)c2ccc(NCCCN3CC(C)CC(C)C3)c([N+](=O)[O-])c2)cc1F (configuration not stated) | 1.22
11 | CCC(C)(C)n1nnnc1C(c1cc2ccc(C)cc2[nH]c1=O)N1CCN(c2ccccc2)CC1 (configuration not stated) | 0.735
12 | COc1ccc(OC)c(-c2ccc(C(=O)N3CCN(CC=Cc4ccccc4)CC3)c(N(C)C)n2)c1 | 0.577
13 | O=C(ON(C(=O)c1ccc(F)cc1)C1C2CC3CC(C2)CC1C3)c1ccc(F)cc1 (configuration not stated) | 0.855
14 | COC(=O)C1=C(C)NC2=C(C(=O)c3ccccc32)C1c1ccc(OCC#N)c(OC)c1 (configuration not stated) | 0.821
15 | CCCn1c(=N)c(C(=O)NC2CCCCC2)cc2c(=O)n3cccc(C)c3nc21 | 1.15
16 | O=C(Nc1ccc(-n2cnnn2)cc1)C1CCN(Cc2ccc(OC(F)F)cc2)CC1 | 0.913
17 | Oc1ccccc1Nc1nc(NCc2ccccc2)c2ccccc2n1 | 0.859
18 | COc1ccc(OC)c(C(C(=O)NC2CCCC2)N(C(=O)c2snc(C(N)=O)c2N)c2ccccc2OC)c1 (configuration not stated) | 0.781
19 | CC(C)(C)c1nn(-c2ccc(Cl)cc2)c2[nH]c(=O)c(CNCc3ccccc3)cc12 | 0.424
20 | COC(=O)c1ccc(C2C3=C(CC(c4ccco4)CC3=O)Nc3ccccc3N2C(=O)c2ccccc2)cc1 (configuration not stated) | 0.575
21 | NC(=O)NN=C1c2cc(S(=O)(=O)NCc3ccco3)ccc2-c2ccc(S(=O)(=O)NCc3ccco3)cc21 | 0.76
22 | COc1ccc(Br)cc1CNC(=O)CCCN1C(=O)COc2ccc(C)cc21 | 0.956
